Values joined by “and” are separate entries in the source; they are usually repeats but may differ in a detail not shown here. Equal values may be shown once. Inconclusive results, whose numbers are uncertain, are shown with a selection of clear calls. A potency beside an inconclusive call is a rough fit, not a confirmed value. Active and inactive are the calls of the source. Unless noted, calls come from the whole dose curve; as a rule, active = well fitted cell-killing curve with a large enough effect in the repeat runs; inconclusive = weak or mixed curves; inactive = no such curve, though single readings can be large or run the other way.
Experiment: qHTS assay for small molecule activators of the heat shock response signaling pathway (AID 743210; active = well fitted activation curve with a large enough effect in the signal ratio in the repeat runs, with a control signal flat, not every such curve was filed as active; inconclusive = weak or mixed curves; the % refers to the signal ratio;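 for activation: HeLa cells with beta-lactamase reporter driven by heat shock elements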)
Details: HeLa HSE-bla reporter, beta-lactamase ratio, 5 h; activation: at 62.6 µM (top of the series) unless noted
Procedure, shortened: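 Reporter gene assay: HeLa cells stably bearing an HSE-bla construct, compound treatment 5 h at 37 C, LiveBLAzer substrate 2.5 h at RT, fluorescence intensity.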
% is set by controls: 0 for no effect and ±100 for the full control effect; potency is the fitted concentration of half-maximal effect; tags give direction and shape of the fitted curve or compound fluorescence and quenching.

| SMILES | Potency |
| --- | --- |
| CCCCNC(=O)n1c(NC(=O)OC)nc2ccccc21 | inconclusive: 56.8 µM [activator] |
| CCOP(=S)(OCC)SC(CCl)N1C(=O)c2ccccc2C1=O (configuration not stated) | inconclusive: 13.8 µM [falling, partial curve, poor fit] |
| CC1(C)C(C(=O)OC(C#N)c2cccc(Oc3ccccc3)c2)C1(C)C (configuration not stated) | inactive |
| CCC(C)c1cccc(C(C)CC)c1O (configuration not stated) | inconclusive: 61.6 µM [falling, partial curve, poor fit] |
| Cc1cccc(Cc2cnc[nH]2)c1C | inconclusive: 28.7 µM |
| COP(=S)(OC)Oc1ccc([N+](=O)[O-])cc1 | inconclusive: 12.3 µM [falling, partial curve, poor fit] |
| CCc1cccc(CC)c1N(COC)C(=O)CCl | inconclusive: 55.3 µM [activator] and inconclusive: 58.2 µM [activator] |
| CCN(CC)CCc1c[nH]c2ccccc12 | inconclusive: 114 µM [activator] |
| CC(C)[C@H](C(=O)O[C@H](C#N)c1cccc(Oc2ccccc2)c1)c1ccc(Cl)cc1 | inconclusive: 54.9 µM |
| O=C(N[C@@H]1N=C(c2ccccc2F)c2cccc3c2N(CC3)C1=O)c1cc2ccccc2[nH]1 | inconclusive: 28.7 µM |
| CC(C)(C)OO | inconclusive: 61.6 µM [activator, partial curve, poor fit] |
| Cc1ccc2cc3c(ccc4ccccc43)c3c2c1CC3 | inconclusive: 26.1 µM [activator] |

Experiment: qHTS assay to identify small molecule agonists of the peroxisome proliferator-activated receptor delta (PPARd) signaling pathway - cell viability counter screen (AID 743211); note: nearly all actives have a fitted effect of over 55% in size
Details: PPARd-bla HEK293H viability, CellTiter-Glo luminescence, 17 h; activity change, negative = cytotoxicity: at 62.6 µM (top of the series)
Procedure, shortened: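 HEK293H PPARd-bla, 3000 cells/well; 5 h preincubation 37C/5% CO2; cpd in DMSO, 17 h 37C; B/G FRET substrate 2 h RT; CellTiter-Glo 30 min RT, luminescence.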

| SMILES | activity change, negative = cytotoxicity | Potency |
| --- | --- | --- |
| Cc1cc(C)c(C(=O)P(=O)(C(=O)c2c(C)cc(C)cc2C)c2ccccc2)c(C)c1 | inactive: -14.2% |  |
| Oc1ccc(-c2ccccc2)cc1 |  | inconclusive: 43.1 µM [cytotoxic, single point] |
| CCC(C)c1cc([N+](=O)[O-])cc([N+](=O)[O-])c1O (configuration not stated) |  | inconclusive: 0.549 µM [cytotoxic, full curve, poor fit] |
| COc1ccc2[nH]cc(CCN(C(C)C)C(C)C)c2c1 |  | inconclusive: 17.7 µM [cytotoxic, single point] |
| COP(=S)(OC)Oc1ccc([N+](=O)[O-])cc1Cl |  | inconclusive: 49 µM [cytotoxic, single point] |
| CCC(C)c1ccc(O)cc1 (configuration not stated) |  | inconclusive: 55.4 µM [cytotoxic, partial curve, poor fit] |
| C[C@]12Cc3nonc3C[C@@H]1CC[C@@H]1[C@@H]2CC[C@@]2(C)[C@H]1CC[C@]2(C)O |  | inconclusive: 23.7 µM [cytotoxic] |
| Cc1ccc(OP(=O)(Oc2ccc(C)cc2)Oc2ccc(C)cc2)cc1 |  | inconclusive: 21.8 µM [cytotoxic, partial curve] |
| CN(C)c1ccc(N)cc1 |  | inconclusive: 47.8 µM [cytotoxic, partial curve] |
| NC(=O)O | inactive: 6.98% |  |

Reference: PubChem BioAssay (Tox21)
